{
  "source": "paper PMC12136788",
  "binders": {"B1": {"name": "chr3:133545784:133545785:-_ENSG00000154917_ENST00000285208|hu_hu|motif|central (ssRNA)", "RNA": "GGGAGUUCUACAGUCCGACGAUCGCACAUGUAUCUCCGUGAGGAUGUGUUUGUGGAAGGUGUAUACACAAGUCUAUCUCGGUAUAUAAUUAUGUACACACAUAUAAAAACUAAACACAUGACAUCUGAAACACGUUCAAACAUCAACAGAGGAUUGAGCAUCA"}, "B2": {"name": "31463449_31463569_8093_3pUTR_ENSMUSG00000025609_ENSMUST00000026699|mouse|control|control (ssRNA)", "RNA": "GGGAGUUCUACAGUCCGACGAUCACCUGUAGACUUAUUCUAGGUUAACAAUGGAGAGCUUUUUGCCGUGCUUAGCUUUGGGAACAUGCACUAGCUCACGCUCAUUCUUCGUUGUAGUCAGAAUUCUUGGGUCAGUGCACACGCCAACAGAGGAUUGAGCAUCA"}, "B3": {"name": "8067981_8069192_916_CDS_ENSMUSG00000022142_ENSMUST00000163765|mouse|control|control (ssRNA)", "RNA": "GGGAGUUCUACAGUCCGACGAUCUUGAACAAUAGGAUCAUCUUCUGAGAACGUGAACUGCAGCAAGGAAGGCACCAGGAAGGAGAGCGAGCUCUUGGAGUGAUUGAUCUUCCUACAUCUUUGACUGAACCAGCCUGCUUCUGCCAACAGAGGAUUGAGCAUCA"}, "B4": {"name": "chr13:100193533:100193534:-_ENSMUSG00000052727_ENSMUST00000064762|mus_hu|FALSE|FALSE (ssRNA)", "RNA": "GGGAGUUCUACAGUCCGACGAUCUUAAACAUUUGAAAAAUGUAAUUCACAGCAUUAAGUAGACUGCAUAGGUCCUCAGUGAAAGGACCCUGAAGAAGCAUUUUUUUAAACCCUCAUCAUAGUUAGCAGUGCAAAACAUAGACUCAACAGAGGAUUGAGCAUCA"}, "B5": {"name": "chr2:78760142:78760143:+_ENSMUSG00000027011_ENSMUST00000028398|mus_mus|FALSE|FALSE (ssRNA)", "RNA": "GGGAGUUCUACAGUCCGACGAUCGGUCCACUGUCUGGCUAUCCUGUCAUGUUCUGCUCUGUUGGUCAAAUACUGAGUGGCUAUGCUUCCGACCAGAGGAUCCGCAGGGUUGCAAUCUGUCAAAAGGGAACAAAUAGAGAGCAACAACAGAGGAUUGAGCAUCA"}, "B6": {"name": "18624260_18624514_661_CDS_ENSMUSG00000072214_ENSMUST00000096987|mouse|control|control (ssRNA)", "RNA": "GGGAGUUCUACAGUCCGACGAUCAAACUGGUACACGUGGAUCCCAAACUUGUCGAUCUCCUCACGUAUUCUGUCCUUCAGCUUCCGGAUCUCACUGGGCACCAGGCAGUCAGCUUUGGCGAUGAGUGGGACGAUGUUCACCUUCAACAGAGGAUUGAGCAUCA"}, "B7": {"name": "chr5:128448638:128448639:+_ENSG00000066583_ENST00000173527|hu_mus|FALSE|FALSE (ssRNA)", "RNA": "GGGAGUUCUACAGUCCGACGAUCGGCACUCGCCUUAAUUAGGUUCUGAAUUUCCUUGAACUUCGGGUGGUCUUUGUCAGCCACCAGCUGUAGGAGGACAGCCUCACUAGUGGUCACGAUGAUCCCAGUGCGGGCAAGACGCUCCAACAGAGGAUUGAGCAUCA"}, "B8": {"name": "chr3:176767854:176767855:-_ENSG00000177565_ENST00000430069|hu_hu|hu_hu_hu_mus_False|28_78 (ssRNA)", "RNA": "GGGAGUUCUACAGUCCGACGAUCGACAUCCUUGUUACUGGGCACGUCCUGCCCUCCUUCUCGUAUACAGUGUCUAAGCACGAGCUGCGUAGGGCCACUCGUGCUGUUCUCACUAAGGUUCCAGAUUCUUGCCGUGGAGUCUCCCAACAGAGGAUUGAGCAUCA"}, "B9": {"name": "chr5:10263280:10263281:+_ENSG00000150753_ENST00000503026|hu_hu|motif|central (ssRNA)", "RNA": "GGGAGUUCUACAGUCCGACGAUCGAGGGCCAUGGGGAUGACCUCCAGUGCGUCGGCAAACGCUCUCAUGGCAUACUGUUCGGAGGUGGGGCACUUAUCCGCCUCUUGGCUAACUGCCAGGGCACAGGAUAUCUCAGCAGCCCCCAACAGAGGAUUGAGCAUCA"}, "B10": {"name": "120789170_120789290_320_CDS_ENSMUSG00000027272_ENSMUST00000028728|mouse|control|control (ssRNA)", "RNA": "GGGAGUUCUACAGUCCGACGAUCUUUCUCUAAGCAAAUAUCCGGAUCCUCUCCAAAUAAGUACCACUCCAAAGGAGUGAGUAUUGACAUCUGUACACUCUCUUCUUGCUUUUCCAAAUCUGGGUCCAUCUCAGCAAAAUAAAUCAACAGAGGAUUGAGCAUCA"}, "B11": {"name": "chr3:100058692:100058693:+_ENSG00000114021_ENST00000480073|hu_mus|FALSE|FALSE (ssRNA)", "RNA": "GGGAGUUCUACAGUCCGACGAUCAUAGUCAGGAAAGUAGGUUGUUCCAUAUGGAGAAUUGAAGCACUCAGGCAGAGAAACUAUGUUGGCACCUUGCUUUGCUGCCUCCCGCACUAGGCUACAAGCCCGGGUAAGGUUAUCUGACAACAGAGGAUUGAGCAUCA"}, "B12": {"name": "66472166_66472286_2592_CDS_ENSG00000173898_ENST00000309996|human|control|control (ssRNA)", "RNA": "GGGAGUUCUACAGUCCGACGAUCCUCGCUGAGCAUGGUGUAGAGCGCCAGGGCUGCCUCCAAGGCCCGCGCUCGCUCGCCUGCCCGGGCCUGCAGCUCCUCGUAGUGCCGCUCCAGGGUGGGCACCCGGCUCUGCACCUCGGGCAACAGAGGAUUGAGCAUCA"}, "B13": {"name": "chrX:140365796:140365797:-_ENSMUSG00000031285_ENSMUST00000033642|mus_mus|mus_mus_mus_hu_False|18_38 (ssRNA)", "RNA": "GGGAGUUCUACAGUCCGACGAUCCUUCUCAUUACUCAGUGCCUGCAAGGUUCUGGUUCGGUAGAAGCUACAGUGGGCGCUGUGAGUGGGGCUAGGCAGUCCAUUCAUCCGGGAGCCUCUCAUAUUUCUGGAUGUCUUAUCUCUCAACAGAGGAUUGAGCAUCA"}, "B14": {"name": "chr22:32894248:32894249:+_ENSG00000100225_ENST00000397426|hu_hu|motif|central (ssRNA)", "RNA": "GGGAGUUCUACAGUCCGACGAUCGGGAAGUGUUGGUCUUUGGUCAUAUUCACCCCCGAUAAUUCCUGGAGGAAGGCGGGAGCGGGGAAAUGGCCUAGGGUGCAAGGGGUUGGGAUAGAAUGGAAUGGUGUGAGUUGACGAUGGCAACAGAGGAUUGAGCAUCA"}, "B15": {"name": "chr1:214814342:214814343:+_ENSG00000117724_ENST00000366955|hu_hu|FALSE|FALSE (ssRNA)", "RNA": "GGGAGUUCUACAGUCCGACGAUCGGCACUUAAGGUUUCAGCAACAACAUUCUGGUGAGCAGAAGUGUCUUCCUGUAACUUACUAAUGCGCUGACUUGUUUCAGCCACAAAACUUUGAUGCAUCUGUUCUGCUUUCAUGAGAUUCAACAGAGGAUUGAGCAUCA"}, "B16": {"name": "chr5:119214657:119214658:+_ENSMUSG00000018076_ENSMUST00000100816|mus_hu|FALSE|FALSE (ssRNA)", "RNA": "GGGAGUUCUACAGUCCGACGAUCUUUUAAAGUUUUUUUGUAGGGGUUUUUUAUUUUUUGUGUUUUUUUUCUUUUUCUGCUUAGAAUUGGGUUUCUAGGGAAGAAAAGCCCCUGCAUUAAAAACAGCCCAUUUAAAAAAAAAAUCAACAGAGGAUUGAGCAUCA"}, "B17": {"name": "chr3:176740097:176740098:-_ENSG00000177565_ENST00000430069|hu_mus|hu_hu_hu_mus_True|68_108 (ssRNA)", "RNA": "GGGAGUUCUACAGUCCGACGAUCUGUUUUUUACACCACAAAAGGAGGCACUUUCAGUAUCUGCAAAAGGUAUUUAAUCCUAAAACAUACUCACCUAGAGGAUAACUCAGGAAAACAAUCUGUUACACUCUAAGACCUACUCCACAACAGAGGAUUGAGCAUCA"}, "B18": {"name": "chrX:12717583:12717584:+_ENSMUSG00000031010_ENSMUST00000089302|mus_hu|FALSE|FALSE (ssRNA)", "RNA": "GGGAGUUCUACAGUCCGACGAUCUUCAGCAUUGGGUACAUUAAUAUUACUAUUGUAAGCGUAAUUAAGAAGGUGUCUUAAAAGAGUAAAGUAGUCGCCUGAGUGUUUAGCUCUCUCUCUUGCUGUGCUCCCCAAAACAGUAAACAACAGAGGAUUGAGCAUCA"}, "B19": {"name": "chr7:75932113:75932114:+_ENSG00000106211_ENST00000248553|hu_hu|hu_hu_hu_mus_False|8_28 (ssRNA)", "RNA": "GGGAGUUCUACAGUCCGACGAUCCUGCGACCACUCAUCGGGCAACCGGGGCACCCCGAAAGCUUGAUCGAAGAGGCGGCUGUGUGCAGGGUACCAGUCCCGGAAUGCCCAGCUGGGCGGGCUCCGCAGCGAGAAGGAGGGCACCAACAGAGGAUUGAGCAUCA"}, "B20": {"name": "chr15:59961163:59961164:-_ENSG00000140299_ENST00000607373|hu_hu|FALSE|FALSE (ssRNA)", "RNA": "GGGAGUUCUACAGUCCGACGAUCGCCAACGUAUUCCAUGGGGACAAGUUCUGCUAGUUCUGCCAAAUUAAACACGUAUCUAAUUUUUUGGCUGAAUUUCGAGCUAAUAAAUGGUCUUGUAACAGCCAGAAGUGUUCUGAUAAACAACAGAGGAUUGAGCAUCA"}, "B21": {"name": "chr7:141445308:141445309:+_ENSG00000106028_ENST00000265304|hu_hu|motif|central (ssRNA)", "RNA": "GGGAGUUCUACAGUCCGACGAUCUAUGAUUGUUGUUGCUUGUCGCCUCACAUUAUUUUUAUCCAUGUAUUCACCAUAGUCGGUUUUCCCUUCCAAAUAAAUUCGAGACCCCUUUUUCACAUAUUGAUAUGCCACGUCUCUGAGCAACAGAGGAUUGAGCAUCA"}, "B22": {"name": "chr6:48548902:48548903:+_ENSMUSG00000052751_ENSMUST00000163452|mus_mus|motif|central (ssRNA)", "RNA": "GGGAGUUCUACAGUCCGACGAUCAAGGAACAAAACAAGACCCAGUAGGCAGAAGUCAUAGGAAAGCAGAAUCCAAUCACGGUAAGUAAGAAAUGUCUAACAAUUAGACUCGCCCUACGAUAGAAGUAGUGCCUUCUGGAGGUACAACAGAGGAUUGAGCAUCA"}},
  "note": "The other results are listed elsewhere or left out.",
  "data": [
    {"target": "T1, UNK ZnF1-3 (human, UniProt Q9C0B0 31-174)", "T1 sequence": "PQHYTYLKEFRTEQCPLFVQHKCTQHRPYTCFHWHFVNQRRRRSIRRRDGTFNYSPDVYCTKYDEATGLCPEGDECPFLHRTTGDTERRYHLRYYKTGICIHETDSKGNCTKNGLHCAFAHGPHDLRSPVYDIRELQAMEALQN", "assay": "nsRBNS (natural sequence RNA bind-n-seq); RBNS binding buffer (assumed for nsRBNS): 25 mM Tris pH 7.5, 150 mM KCl, 3 mM MgCl2, 0.01% Triton X-100, 500 ug/ml BSA, 20 U/ml SUPERase-In, 4 C; UNK is unkempt and MSI1 is Musashi-1; names of the RNAs are library labels; protein concentration not given here; high values mean tight binding", "units": {"binding signal": "enrichment R"}, "values": [
      {"binder": "B1", "binding signal": 0.904},
      {"binder": "B2", "binding signal": 0.334},
      {"binder": "B3", "binding signal": 1.45},
      {"binder": "B4", "binding signal": 0.544},
      {"binder": "B5", "binding signal": 1.58},
      {"binder": "B6", "binding signal": 0.71},
      {"binder": "B7", "binding signal": 0.754},
      {"binder": "B8", "binding signal": 0.391},
      {"binder": "B9", "binding signal": 0.896},
      {"binder": "B10", "binding signal": 1.13},
      {"binder": "B11", "binding signal": 1.37},
      {"binder": "B12", "binding signal": 0.291},
      {"binder": "B13", "binding signal": 0.596},
      {"binder": "B14", "binding signal": 1.07},
      {"binder": "B15", "binding signal": 0.92},
      {"binder": "B16", "binding signal": 0.406},
      {"binder": "B17", "binding signal": 0.907},
      {"binder": "B18", "binding signal": 1.01},
      {"binder": "B19", "binding signal": 0.855},
      {"binder": "B20", "binding signal": 1.27},
      {"binder": "B21", "binding signal": 0.521},
      {"binder": "B22", "binding signal": 2.07}
    ]}
  ]
}
